# Experimental data taken from paper PMC4336329 (PLoS ONE, 2015).
# Out of some 310,000 compounds screened, about 2,200 (0.71%) showed an effect of 50% or more. Effects have a minus sign here. Some of the results follow.
# Target: human ether-à-go-go-related gene (hERG) potassium channel (human, UniProt Q12809)
# Test: primary screen, population patch clamp on CHO cells stably expressing hERG
# Chain of human ether-à-go-go-related gene (hERG) potassium channel (Q12809 whole entry, looked up): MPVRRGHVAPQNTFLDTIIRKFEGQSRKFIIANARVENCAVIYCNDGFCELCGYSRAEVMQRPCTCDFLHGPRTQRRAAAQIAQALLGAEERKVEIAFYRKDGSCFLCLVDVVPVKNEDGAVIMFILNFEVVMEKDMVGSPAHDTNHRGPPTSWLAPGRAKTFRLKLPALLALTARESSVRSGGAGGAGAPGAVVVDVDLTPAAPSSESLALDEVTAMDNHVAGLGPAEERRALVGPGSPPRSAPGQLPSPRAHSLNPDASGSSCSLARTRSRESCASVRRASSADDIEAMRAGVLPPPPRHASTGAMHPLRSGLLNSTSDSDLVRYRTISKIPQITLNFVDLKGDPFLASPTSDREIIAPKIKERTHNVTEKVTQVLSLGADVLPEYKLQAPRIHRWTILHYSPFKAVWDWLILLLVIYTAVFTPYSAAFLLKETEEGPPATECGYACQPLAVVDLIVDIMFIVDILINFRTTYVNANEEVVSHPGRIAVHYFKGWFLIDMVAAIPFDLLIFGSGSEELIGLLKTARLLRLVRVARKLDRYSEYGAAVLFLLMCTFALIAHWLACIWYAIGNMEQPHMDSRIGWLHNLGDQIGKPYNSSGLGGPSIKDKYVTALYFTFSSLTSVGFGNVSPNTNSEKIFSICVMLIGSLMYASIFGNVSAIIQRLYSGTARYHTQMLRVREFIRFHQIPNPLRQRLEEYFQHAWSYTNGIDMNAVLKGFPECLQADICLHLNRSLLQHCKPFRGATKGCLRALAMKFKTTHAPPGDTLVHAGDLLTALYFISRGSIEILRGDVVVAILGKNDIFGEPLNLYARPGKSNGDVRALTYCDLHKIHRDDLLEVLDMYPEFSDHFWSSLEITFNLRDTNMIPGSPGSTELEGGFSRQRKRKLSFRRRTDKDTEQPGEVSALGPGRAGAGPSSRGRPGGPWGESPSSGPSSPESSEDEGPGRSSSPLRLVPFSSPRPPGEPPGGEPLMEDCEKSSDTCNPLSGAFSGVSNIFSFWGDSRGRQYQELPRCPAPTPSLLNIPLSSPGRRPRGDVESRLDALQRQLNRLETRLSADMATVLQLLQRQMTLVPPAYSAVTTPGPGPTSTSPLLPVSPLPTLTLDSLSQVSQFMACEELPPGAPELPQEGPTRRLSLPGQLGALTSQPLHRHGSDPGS
row,Compound,"hERG current change (%, negative = inhibition) at 1uM [%]"
1,COc1ccc([N+](=O)[O-])c(OC)c1C(=O)NC(=O)Nc1nc(C)cc(C)n1,9.06
2,O=C(/C=C/c1ccc(F)cc1)NCCCn1ccnc1,5.67
3,CCOC(=O)c1ccc(NS(=O)(=O)c2cnc[nH]2)cc1,11.3
4,COc1ccc(-c2c(C)nn(-c3ccccc3)c2N)cc1OC,3.94
5,CCCn1nc(C(=O)NC2CCCc3ccccc32)c2ccccc2c1=O (stereo not shown),6.25
6,FC(F)(F)COc1nc(N2CCOCC2)nc(N(c2ccccc2)c2ccccc2)n1,-4.99
7,CN1CCN(C(CNC(=O)C(=O)Nc2ccc3c(c2)OCO3)c2ccc(F)cc2)CC1 (stereo not shown),-6.21
8,Cc1ccc(S(=O)(=O)c2cnc(-c3ccccc3)nc2N2CCN(C)CC2)cc1,26.6
9,CC(C)(C)CN1C(=O)C(=O)NC[C@H]1Cc1cccc2ccccc12,14.6
10,COc1cc(C(=S)N2CCCC2)cc(OC)c1OC,13.4
11,N=c1n(-c2ccccc2)c(O)cc(=O)n1-c1ccccc1,2.48
12,O=C(Nc1ccccc1C(=O)NCc1ccco1)c1ccccc1,6.85
13,Cc1ccc(NC(=O)COC(=O)C2CC2(Cl)Cl)cc1C (stereo not shown),14.2
14,COc1cc(/C=N/Nc2cc(C)nc(NS(=O)(=O)c3ccccc3)n2)ccc1O,4.68
15,Cc1ccc(C(=O)CCC(=O)OCC(=O)NNC(=O)c2ccccc2Cl)cc1,9.44
16,O=C(Nc1nccs1)c1cn(-c2ccccc2)nc1-c1ccncc1,7.59
17,O=C1CCCN1c1ccc(N2CCCC2=O)cc1,15.2
18,O=C(Nc1c2c(nn1-c1cccc(Cl)c1)CS(=O)(=O)C2)c1ccco1,3.63
19,O=C(Nc1cccc(C(F)(F)F)c1)C1CCCO1 (stereo not shown),15.6
20,CN(C)C(CNC(=O)c1cccc(S(=O)(=O)N(C)C)c1)c1ccccc1 (stereo not shown),-0.964
21,O=C(NS(=O)(=O)c1ccccc1)c1ccccc1F,-0.685
22,O=C1CCCCN1CCC(=O)N1CCCC(Nc2ccccc2)C1 (stereo not shown),13.9

row,Compound,"hERG current change (%, negative = inhibition) at 1uM [%]"
1,CC12CN(C(=O)c3ccc(Cl)cc3)C3(C#N)CC1CCC23C (stereo not shown),-2.14
2,O=C(Nc1ccc(Cn2cccn2)cc1)c1ccc(COc2cccc(Br)c2)cc1,17.4
3,O=C(c1ccccc1F)N1CCN(c2ccc([N+](=O)[O-])c3ncccc23)CC1,-38.7
4,CC(C)CC(=O)NC(=S)Nc1nc(-c2cccc3ccccc23)cs1,7.63
5,O[C@@H]([C@H](O)[C@H](O)CBr)[C@H](O)CBr,15
6,Cc1oc2cc(O)ccc2c(=O)c1Oc1ccccc1,-3.8
7,CSc1ccccc1NC(=O)c1ccccc1,-0.631
8,CCCOc1ccc(C(C)=O)cc1CSc1nc(O)cc(=O)[nH]1,9.83
9,O=c1[nH]c2ccc(Cl)cc2c(=O)n1Cc1ccco1,17.4
10,CC(C)(/C=N/O)/[N+]([O-])=C/c1ccccc1C(F)(F)F,10.8
11,Cc1ccc(S(=O)(=O)N2CCOCC2)cc1C(=O)Nc1ccccc1N1CCOCC1,13.7
12,CN(C)CCCN1C(=O)c2oc3ccc(F)cc3c(=O)c2C1c1cccnc1 (stereo not shown),8.54
13,CC(C)N1C(=O)S/C(=C/c2cccnc2)C1=O,12.1
14,O=C(COc1ccccc1)Nc1ccc(Cl)cc1Cl,13.3
15,Cc1nn(C(C)C(=O)Nc2ccc(Cl)cn2)c(C)c1[N+](=O)[O-] (stereo not shown),2.84
16,Cc1ccc(NC(=O)C2CC(=O)NC(N3CCc4ccccc43)=N2)cc1 (stereo not shown),10.6
17,CCC(CC)C(=O)c1c[nH]c(C(=O)NCc2ccncc2)c1,10
18,Cc1cc(NN)nc2ccc(Cl)cc12,5.75
19,NC(=S)N/N=C\c1c2ccccc2cc2ccccc12,9.15
20,CN1C(=O)/C(=C/c2cc(C(C)(C)C)c(O)c(C(C)(C)C)c2)NC1=S,8.32
21,Cc1ccc(NC(=O)CSc2nnc(-c3ccco3)c(-c3ccco3)n2)cc1,-8.37
22,Cl.O=C(c1cc(S(=O)(=O)Nc2ccccc2F)c(Cl)cc1Cl)N1CCN(CCO)CC1,9.93

row,Compound,"hERG current change (%, negative = inhibition) at 1uM [%]"
1,Cc1nc2ccccn2c1C(=O)NCc1ccc2c(c1)OCO2,4.6
2,CCCCNc1c(N)n(CC(C)C)c(=O)[nH]c1=O,-3.75
3,O=C(N/N=C/c1ccncc1)C1C2CCCCCCC21 (stereo not shown),9.69
4,O=C1c2ccccc2C(Nc2ccc(S(=O)(=O)N3CCCCC3)cc2)N1c1ccccn1 (stereo not shown),5.21
5,COc1ccccc1-c1ccc(SCC(=O)NCCc2ccccc2)nn1,-0.013
6,CCCn1c(=S)[nH]c2cc(C(=O)N(CCO)Cc3ccccc3)ccc2c1=O,15.5
7,O=C(Cn1cc(C(F)(F)F)cc(Cl)c1=O)Nc1cccc(S(=O)(=O)N2CCCCC2)c1,15.8
8,COc1ccccc1CNS(=O)(=O)c1c(C)noc1C,13.4
9,Cc1cc(C)c2c(CN3CCOCC3)cc(=O)oc2c1,6.07
10,C/C(=N\NC(=S)NCc1ccccc1)c1ccc(Cl)cc1,2.24
11,Nc1ncnc(Nc2cccc(F)c2)n1,6.16
12,COCCCN(C(=O)Cc1csc(-c2cccc(Cl)c2)n1)c1c(N)n(Cc2ccccc2)c(=O)[nH]c1=O,8.1
13,Cc1ccccc1N(C(=O)c1csnn1)C(C(=O)NC1CCCC1)c1ccncc1 (stereo not shown),10.7
14,CCc1nnc(NC(=O)[C@@H](NC(=O)c2cc(OC)cc(OC)c2)C(C)C)s1,17
15,Cc1ccc(C(=O)N2CCN(c3ncccn3)CC2)c(C)c1,14.7
16,Cc1ccsc1C(=O)N1CCCC(CCC(=O)NCc2ccc(F)c(F)c2)C1 (stereo not shown),1.22
17,Cc1ccc(-n2c(C)cc(/C([O-])=C(/C(=S)Nc3ccc(F)c(Cl)c3)[n+]3ccccc3)c2C)cc1,16.4
18,COCCN(C(=S)Nc1ccc(Cl)cc1OC)C1CCN(C(C)=O)CC1,1.97
19,Cc1ccc(N2C(=O)c3ccc(C(=O)N4CCN(Cc5ccccc5)CC4)cc3C2=O)cc1,4.4
20,O=C(CC(c1ccccc1)c1ccccc1)NCc1cccnc1,3.99
21,CC(C)n1cc(/C=C2/SC(=O)N(CC(=O)Nc3ccc4c(c3)OCO4)C2=O)c2ccccc21,2.03
22,COc1ccccc1C(=O)C1CCCN(C(=O)CCc2ccccn2)C1 (stereo not shown),-3.64

row,Compound,"hERG current change (%, negative = inhibition) at 1uM [%]"
1,O=C(c1cc([N+](=O)[O-])ccc1N1CCCCC1)N1CCc2ccccc21,8.63
2,COCCn1c(SCC(=O)Nc2ccc(F)cc2)nc2c(oc3ccccc32)c1=O,1.63
3,COc1ccc(NC(=O)Nc2c(C)noc2-c2ccccc2)cc1,15.3
4,CC(=O)N1N=C(c2ccco2)CC1c1cc2cc(C)ccc2nc1Cl (stereo not shown),6.38
5,NC(=O)CC(NC(=O)c1ccccc1)c1ccc(NCc2ccc(F)c(F)c2)c([N+](=O)[O-])c1 (stereo not shown),13.1
6,Cc1nc2cc(C(=O)NCc3ccc4c(c3)OCO4)ccc2n1-c1ccc(Br)cc1,-2.13
7,COC(=O)c1ccc(NC(=O)C(=O)N2CCN(C(=S)Nc3cccc(C)c3C)CC2)cc1,10.4
8,Cc1c(NC(=O)Nc2ccccc2)c(=O)n(-c2ccccc2)n1C,6.6
9,C=CCC(NCc1ccccc1)c1ccco1 (stereo not shown),6.67
10,O=C1CC(NC(=O)C(F)(F)F)c2cc3c(cc21)OCO3 (stereo not shown),8.85
11,CCc1cc(=O)oc2c3c(cc(OCC(=O)NC4CC4)c12)OC(C)(C)CC3,-8.42
12,O=C(CSc1ccc(-c2ccccn2)nn1)Nc1ccc(F)c(F)c1,-11.2
13,O=C(CCCc1ccccc1)Nc1nnc(C(F)(F)F)s1,-2.47
14,O=C(c1ccc(=O)n(Cc2ccc(Cl)c(Cl)c2)c1)N1CCOCC1,0.148
15,CCN(Cc1cccs1)C(=O)CN1C(=O)NC(c2ccccc2)(c2ccccc2)C1=O,-3.02
16,CCC(=O)NS(=O)(=O)c1cccnc1Nc1ccccc1Cl,11.3
17,CCOc1ccc2nc(N3CCCC(C(=O)NCCCN4C(C)CCCC4C)C3)sc2c1 (stereo not shown),-13.6
18,CCOC(=O)c1cnc2nc(SCc3ccccc3Cl)[nH]n2c1=O,12.9
19,COc1ccc(-c2csc(NC(=O)CSc3nc4ccccc4c(=O)[nH]3)n2)cc1,12.1
20,Cc1csc(SCC(=O)Nc2cc(S(=O)(=O)N(C)C)ccc2C)n1,13.7
21,CC(=O)c1c(C)nc2sc3c(=N)n(N)cnc3c2c1-c1ccc(Cl)cc1,1.1
22,O=C(CN1C(=O)C2CC=CCC2C1=O)Nc1cc(C(F)(F)F)ccc1N1CCCC1 (stereo not shown),-10.7
